Assay results published in article PMC9574860, “Chemical Toolkit for PARK7: Potent, Selective, and High-Throughput” (Journal of Medicinal Chemistry, 2022).
Out of some 7,900 compounds screened, about 400 (5.1%) showed an effect of 50% or more. The list shows a part of the results.

Target: Parkinson's disease protein 7 (PARK7/DJ1) (human, UniProt Q99497)
Experiment: primary screen, percent inhibition; read as competition with a fluorescent probe by fluorescence polarization; higher = more effect of the substance
Conditions: 100 µM
How it was run: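 Fluorescence-polarization probe displacement (JYQ-107, 20 nM final, 2 h) after 2 h preincubation of PARK7 (0.2 μM final) with each fragment at 100 μM final. Read-out ex/em 480/520 nm; remaining activity derived from FP signal loss relative to reference controls.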

Parkinson's disease protein 7 (PARK7/DJ1), sequence (Q99497 whole entry, looked up): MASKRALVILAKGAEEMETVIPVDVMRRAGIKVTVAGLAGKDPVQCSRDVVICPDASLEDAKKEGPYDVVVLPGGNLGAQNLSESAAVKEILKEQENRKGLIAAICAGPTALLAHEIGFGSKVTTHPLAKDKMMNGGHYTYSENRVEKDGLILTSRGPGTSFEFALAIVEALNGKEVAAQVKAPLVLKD

Row | Structure (SMILES) | Inhibition % [%]
1 | C=CC(=O)N1CC(=O)N(C)C1c1ccccc1 (stereo not drawn) | 1.17
2 | CN1CCCC(C2OCCO2)C1 (stereo not drawn) | 3.68
3 | C=CC(=O)NC1CC2(COC(C)C2)C1 (stereo not drawn) | 8.04
4 | COC(=O)c1ccc(Cl)cc1S(=O)(=O)F | 96.1
5 | O=C(c1cccnc1S)N1CCOC2(CCCC2)C1 | 6.34
6 | COc1cc(Cl)ccc1S(=O)(=O)n1nc(C)cc1C | 9.02
7 | N#Cc1cn(Cc2ccccc2)nn1 | 3.36
8 | NC(=O)C1CCN(C(=O)C=Cc2ccc(Cl)s2)CC1 | 13.4
9 | O=c1ccccn1Cc1ccc(B(O)O)cc1 | 11.4
10 | Cc1c(CNC2CCC3(CC2)OCCO3)cc(C#N)n1C | 5.64
11 | CC(C)N(C(=O)Cn1cnc(C#N)n1)C(C)C | 7.5
12 | Nc1ccc(N2CCC2=O)cc1 | 16.5
13 | O=C1OCCC1Sc1nncs1 (stereo not drawn) | 10.2
14 | C=CC(=O)Nc1cc(C2CC2)no1 | 2.71
15 | O=C(CCl)Nc1ccc(N2CCCC2=O)cc1 | 9.28
16 | C=CC(=O)N1Cc2cccc(OC)c2C1 | 4.99
17 | C=CC(=O)N1CCCC1c1ccccn1 (stereo not drawn) | 14.3
18 | Cc1ccc(S(=O)(=O)n2nc(C)c(C)c2C)cc1 | 3.34

Row | Structure (SMILES) | Inhibition % [%]
19 | N#Cc1cc(F)c(N2CCCC(C3OCCO3)C2)c(F)c1 (stereo not drawn) | 8.98
20 | N#Cc1cnc(Oc2ccccc2)cn1 | 11.6
21 | Cc1c(NC(=O)CCl)cccc1[N+](=O)[O-] | 8.38
22 | C=CC(=O)NC1(Cc2cccc(F)c2)CCOCC1 | 11.9
23 | C=CC(=O)N1CCCC2(CCOCC2)C1 | 14.9
24 | C=CC(=O)Nc1cccc(F)c1 | 7.3
25 | C=CC(=O)N1CCC(c2ccco2)C1 (stereo not drawn) | 6.85
26 | Cc1cccnc1S | 12.6
27 | O=C(CCl)Nc1nc2c(s1)CCC2 | 1.27
28 | C=CC(=O)N(C)C1CCN(S(C)(=O)=O)C1 (stereo not drawn) | 1.26
29 | COCC(C)CN(C)c1nc2ccccn2c1C#N (stereo not drawn) | 4.52
30 | CC1(C)Cc2cc(C=C(C#N)C(=O)O)ccc2O1 | 14.7
31 | N#Cc1ccc(N2C[C@H](F)C[C@H]2C(N)=O)cn1 | 2.16
32 | NCC1CCCN1C(=O)C=Cc1ccc(Cl)s1 (stereo not drawn) | -0.809
33 | C=CC(=O)NC(CO)C1CCCO1 (stereo not drawn) | 6.87
34 | COc1ccc(N2CCN(C(=O)CCl)CC2)cc1 | 28.8
35 | Cc1ccc(NC(=O)CCl)cc1C | 34.8
36 | O=C(CCl)N(Cc1ccco1)c1ccccc1 | 17.8
